In all, about 52,000 compounds went through this assay and about 1,700 (3.3%) were called active. Cut-off read from the data, not from the text of the source: active = survival mostly below about 52% (no sharp cut-off); inactive = mostly above about 56%. This is one part of the list.
Test system: Wild type
Experiment: S. aureus survival, RN4220 and DeltatarO strains – OD600, teichoic acid synthesis inhibitors, primary screen (AID 463173)
Conditions: S. aureus RN4220 wild type/DeltatarO growth, OD600, 18 h, active compounds read low, screened at 18.75 µg/mL (by protocol)

Structure (SMILES)	survival
COCCNC(=O)CSc1nc(-c2ccc(C)cc2)[nH]c1-c1ccc(OC)cc1	inactive: 79%
O=C(CSc1nc(=O)n(Cc2ccccn2)c2c1CCC2)Nc1cccc(Cl)c1	inactive: 71%
O=C(O)c1ccccc1SC1CC(=O)N(c2ccc(N3CCCCC3)cc2)C1=O (stereo not drawn)	inactive: 96%
CC(C)CCNC(=O)C1CCC(CNS(=O)(=O)c2cccc3nsnc23)CC1 (stereo not drawn)	inactive: 131%
CCc1ccc(NC(=O)CN2C(C(=O)OC)=C(c3ccccc3)c3ccccc3S2(=O)=O)cc1	inactive: 75%
CCCc1nn2c(=O)cc(COC(=O)c3ccccc3NC(=O)c3ccc(OCC)cc3)nc2s1	inactive: 22%
Cc1ccc(-c2c3c(=O)n(C)c(=O)n(C)c3c3c(C)nc4ccccc4n23)cc1	inactive: 70%
Cn1cnnc1SCC(=O)c1ccccc1	inactive: 101%
COc1ccc(NC(=O)Cn2ccn(-c3ccc(C)c(C)c3)c(=O)c2=O)cc1Cl	inactive: 87%
Cc1cc(N2CCN(c3ccc(F)cc3)CC2)n2cnnc2n1	inactive: 93%
Cc1ccc(Oc2ccc(C#N)c(C#N)c2)c(-n2nc3ccccc3n2)c1	inactive: 112%
Cc1ccc(C(=O)c2cn(Cc3ccccc3)c3ccccc3c2=O)cc1	inactive: 87%
Cc1cccc(-c2nc3cc(NC(=O)COc4ccccc4F)ccc3o2)c1	inactive: 119%
O=C(CN1CCC(NC(=O)Nc2ccccc2-c2ccccc2)CC1)NCc1ccco1	inactive: 102%
Cc1ccccc1OCC(=O)Nc1ccccc1C(=O)OCc1cc(=O)n2nc(C3CC3)sc2n1	inactive: 69%
Cc1cccc(NC(=O)c2oc3ccccc3c2NC(=O)Cc2coc3cc(C)cc(C)c23)c1	inactive: 88%
CN(C)Cc1ccc(C(=O)O)o1	inactive: 103%
COc1ccc(Cl)cc1NC(=O)CSc1nc(=O)[nH]c2c1CCC2	inactive: 110%
CC(C)Sc1ncc(Cl)c(C(=O)N(Cc2ccc(F)cc2)C2CCS(=O)(=O)C2)n1 (stereo not drawn)	inactive: 88%
Cc1ccc(-c2nn3c(-c4ccccc4)nnc3c3ccccc23)cc1	inactive: 76%
O=C(Cc1cccs1)NC1CC(=O)N(c2ccc(Cl)cc2)C1 (stereo not drawn)	inactive: 76%
Cc1cccc(C(=O)OCc2cc(=O)n3nc(C4CCCCC4)sc3n2)c1	inactive: 77%

Structure (SMILES)	survival
O=C(NC1CCCC1)C(c1ccncc1)N(CCCN1CCOCC1)C(=O)c1ccc(-c2ccccc2)[nH]1 (stereo not drawn)	inactive: 110%
O=C(NCCC1=CCCCC1)c1ccc2c(c1)N(Cc1ccccc1F)C(=O)c1ccccc1S2(=O)=O	inactive: 88%
CCc1cccc(N2C(=O)CS(=O)(=O)C23C(=O)N(Cc2ccc(F)cc2)c2ccc(C)cc23)c1 (stereo not drawn)	inactive: 127%
COc1ccc(N2Cc3cccc(C(=O)Nc4ccc(C)c(C)c4)c3C2=O)cc1	inactive: 84%
Cc1ccc(C)c(NC(=O)OCC(C)C)c1	inactive: 103%
CCOc1ccc(N2CC(NC(=O)Cc3ccccc3)CC2=O)cc1 (stereo not drawn)	inactive: 131%
Cc1ccc(NC(=O)CN2C(=O)C(C)(C)c3ccccc32)cc1	inactive: 77%
CCOC(=O)c1c(NC(=O)c2ccc(S(=O)(=O)N3CCCC(C)C3)cc2)sc2c1CCN(C(C)C)C2 (stereo not drawn)	inactive: 83%
Cc1ccc(S(=O)(=O)c2nc(-c3ccco3)oc2SCc2ccccc2Cl)cc1	inactive: 65%
COc1ccc(N2CC(NC(=O)COc3ccccc3C)CC2=O)cc1OC (stereo not drawn)	inactive: 138%
CCN1c2cc(C)ccc2-n2cccc2C12CCN(C(=O)Nc1cc(OC)c(OC)c(OC)c1)CC2	inactive: 74%
Cc1cc(C)cc(NC(=O)C(=O)NC(C)c2ccccc2)c1 (stereo not drawn)	inactive: 82%
CCOC(=O)c1cc(-c2ccccc2)n(-c2cccc(C(=O)N(CC)c3ccccc3)c2)c1C	inactive: 89%
CCC(OC(=O)c1cc2sccc2n1C(C)C)C(=O)NCc1ccc(OC)cc1 (stereo not drawn)	inactive: 117%
Cc1ccc(-n2c(SCC(=O)Nc3cccc(F)c3)nc3c(oc4ccccc43)c2=O)cc1C	inactive: 101%
Cc1c2cnn(-c3ccccc3)c(=O)c2c(C)n1C(C)C(=O)Nc1ccc(Br)cc1F (stereo not drawn)	inactive: 78%
CC(C)c1ccc2oc(-c3cccc(NC(=O)c4ccc5c(c4)OCCO5)c3)nc2c1	inactive: 32%
Cc1cc(C)cc(-n2ccn3c(CC(C)(C)CC(=O)O)nnc3c2=O)c1	inactive: 64%
C=CCN1C2=NCCCN2c2ccccc21	inactive: 113%
Cc1ccc2oc3c(c(=O)c2c1)C(c1cccc(O)c1)N(Cc1ccccc1Cl)C3=O (stereo not drawn)	inactive: 82%
COc1cccc(NC(=O)C2CCCN2S(=O)(=O)c2ccc3c(c2)C(C)(C)C(=O)N3C)c1 (stereo not drawn)	inactive: 109%
COc1ccc(N2CCN(C(=O)NCc3noc4ccccc34)CC2)cc1	inactive: 79%

Structure (SMILES)	survival
CSc1ccc(CCNC(=O)CCc2c(C)nc3cc(-c4ccccc4)nn3c2C)cc1	inactive: 86%
CCCOc1ccc(CN(C(=O)c2nc(SC(C)C)ncc2Cl)C2CCS(=O)(=O)C2)cc1 (stereo not drawn)	inactive: 84%
CCOc1ccc(/C=C/c2nc(C#N)c(Nc3ccc(OC)cc3)o2)cc1	inactive: 86%
COc1ccc(OC)c(NC(=O)CCn2cnc3ccccc3c2=O)c1	inactive: 86%
N#Cc1ccccc1Cn1c(=O)n(Cc2ccc(C(=O)NC3CCN(Cc4ccccc4)CC3)cc2)c(=O)c2ccccc21	inactive: 100%
CC(OC(=O)c1cc2sccc2n1C)C(=O)NC1CCCC1 (stereo not drawn)	inactive: 101%
O=C(Nc1c(C(=O)Nc2cccc(F)c2)oc2ccccc12)c1cc2ccccc2o1	inactive: 44%
Fc1ccc(-c2ccc(CNCCSc3nnnn3-c3ccccc3)o2)cc1Cl	inactive: 23%
COc1cc2[nH]c(=O)n(CCCCCC(=O)NCCc3ccccc3)c(=O)c2cc1OC	inactive: 75%
CCNC(=O)c1ccc2nc(Cc3ccccc3)oc2c1	inactive: 95%
CCOC(=O)c1c(NC(=O)COc2cccc(C(F)(F)F)c2)sc2c1CCCCC2	inactive: 72%
CC(C)COc1ccc(C(=O)N2CCN(CCc3ccccn3)CC2)cc1	inactive: 81%
COc1cccc(C2c3c(-c4ccccc4O)n[nH]c3C(=O)N2CCc2ccc(OC)c(OC)c2)c1 (stereo not drawn)	inactive: 35%
O=C(CSc1ncc(CO)n1Cc1ccccc1)Nc1ccc(C(F)(F)F)cc1	inactive: 120%
O=C(Nc1nnc(S(=O)(=O)N2CCc3ccccc32)s1)c1ccccc1	inactive: 19%
CC(=O)Nc1ccccc1C#N	inactive: 115%
CCOc1nc(-c2ccc(C)cc2)ccc1-c1noc(-c2ccccc2F)n1	inactive: 59%
Cc1ccc(-c2nc3ccc(Cl)cn3c2Nc2ccc3c(c2)OCCO3)s1	inactive: 83%
COc1ccc(CNC(=O)CN2C(=O)CCCc3ccccc32)cc1	inactive: 82%
CCN(CC)S(=O)(=O)c1ccc2oc(C(=O)Nc3ccc(Br)cc3F)c(C)c2c1	inactive: 68%
COc1cc(NC(=O)c2cnc3c(-c4ccc(F)cc4)c(C)nn3c2C)cc(OC)c1	inactive: 124%
Cc1ccc(Sc2c(C(=O)NCc3ccccc3C)[nH]c3ccccc23)cc1	inactive: 88%

Structure (SMILES)	survival
CCc1ccc(-c2nc(-c3cc4ccccc4oc3=O)sc2C)cc1	inactive: 148%
CCOc1ccc(CCNC(=O)Cn2ncn3c(cc4ccccc43)c2=O)cc1OCC	inactive: 80%
CCn1c(C(=O)Nc2cc(Cl)ccc2C)cc2sc(Cl)cc21	inactive: 82%
COc1ccc(CCNC(=O)CCc2c(C)c3cc4c(C)c(C)oc4cc3oc2=O)cc1	inactive: 111%
COc1ccc(NC(=O)CC(C)n2nc(C)cc2C)cc1Cl (stereo not drawn)	inactive: 68%
CCOC(=O)c1ccc(NS(=O)(=O)c2cc(Br)cc3c2N(C(C)=O)C(C)C3)cc1 (stereo not drawn)	inactive: 83%
Cc1ccccc1NC(=O)C(NC1CCCCC1)C(C)C (stereo not drawn)	inactive: 104%
CCN(CCCNC(=O)c1nn(-c2ccc(OC)c(Cl)c2)c(=O)c2c1c1ccccc1n2C)c1cccc(C)c1	inactive: 92%
Cc1cccc(-n2ccnc2SCC(=O)Nc2nc3ccccc3s2)c1	inactive: 92%
CCOC(=O)C(=O)Nc1c(C(=O)Nc2cccc(F)c2)oc2ccccc12	inactive: 123%
COc1ccccc1N1CCN(c2nc3c(S(=O)(=O)c4ccc(C)c(C)c4)nnn3c3ccc(Cl)cc23)CC1	inactive: 83%
Cc1cc(N2CCC(C(O)(c3ccccc3)c3ccccc3)CC2)nc(C)n1	inactive: 113%
Cc1cc2[nH]c(=O)c(=O)[nH]c2cc1S(=O)(=O)N1CCN(c2cccc(C)c2C)CC1	inactive: 128%
Cc1cccc(-c2nc(SCC(=O)NCc3ccco3)c3c(=O)n(C)c(=O)n(C)c3n2)c1	inactive: 81%
Cc1ccc(Cn2c(CNS(=O)(=O)c3ccc(Cl)s3)nc3cccnc32)cc1	inactive: 136%
CCc1c(C)sc(NC(=O)C2c3ccccc3Oc3ccccc32)c1C(=O)OC(C)C	inactive: 25%
COc1ccc(CNC(=O)c2cc(-c3ccc(C)c(C)c3)n[nH]2)cc1	inactive: 67%
CCc1ccccc1Nc1cc(C(=O)NC2CCC(C)CC2)c2ccccc2n1 (stereo not drawn)	inactive: 90%
CCOC(=O)c1cccc(NC(=O)C2CCCN(c3nnc(C)c4c(C)n(-c5ccccc5)nc34)C2)c1 (stereo not drawn)	inactive: 70%
O=C(Nc1cc(Cl)cc(Cl)c1)c1cc(S(=O)(=O)N2CCc3ccccc3C2)ccc1F	inactive: 73%
COc1ccc(OC)c(C2C(C(=O)Nc3ccccc3OC)=C(C)Nc3c(C(=O)Nc4ccc(F)cc4)cnn32)c1 (stereo not drawn)	inactive: 131%
COc1ccc(C(=O)Nc2c(C(=O)c3ccccc3)oc3ccccc23)cc1	inactive: 75%
